# In the supplement of paper PMC12217912:
# This is one part of the list. The full chains were built here from the parent and the listed change. Values near 0.05 are background.
# B1: TEV protease; numbered along this chain (parent)
# chain: MGESLFKGPRDYNPISSSICHLTNESDGHTTSLYGIGFGPFIITNKHLFRRNNGTLVVQSLHGVFKVKDTTTLQQHLVDGRDMIIIRMPKDFPPFPQKLKFREPQREERICLVTTNFQTKSMSSMVSDTSCTFPSGDGIFWKHWIQTKDGQCGSPLVSTRDGFIVGIHSASNFTNTNNYFTSVPKNFMELLTNQEAQQWVSGWRLNADSVLWGGHKVFMVKPEEPFQPVKEATQL
# Variants of: B1
# Experiment: raw area under fraction-flipped curve 0-4 h after induction (AUC4h, not background-subtracted), DNA-recorder readout of cleavage of the substrate (dimensionless); higher = more cleavage of the substrate by the protease variant
# Conditions: temperature: 34 °C; time window: 0-4 h after rhamnose induction
# Description: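 In vivo DNA recorder in E. coli TOP10(DE3) ΔrhaA at 34 °C. Each TEVp single-site mutant (parent TEVp 0) is paired with a single-site variant of the 7-mer TEVs (canonical ENLYFQ|S). The substrate sits between flexible linkers in a Bxb1-sfGFP-TEVs-SsrA fusion, so cleavage stabilises Bxb1 and speeds flipping of a recombination array, read by NGS. The value is the raw area under the fraction-flipped curve over 0-4 h after rhamnose induction (AUC4h), with ≥20 reads per time point. It is not background-subtracted; inactive controls average about 0.047.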
# 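Further: Bxb1 expression induced with 0.2% (w/v) L-rhamnose at OD600 near 0.5, cultures sampled hourly, flipped fraction per protease–substrate barcode pair counted by paired-end Illumina sequencing.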
Variant,area with substrate ENLYFAS,area with substrate ENLYFCS,area with substrate ENLYFFS,area with substrate ENLYFHS,area with substrate ENLYFIS,area with substrate ENLYFLS,area with substrate ENLYFMS,area with substrate ENLYFNS,area with substrate ENLYFPS,area with substrate ENLYFTS,area with substrate ENLYFVS,area with substrate ENLYFWS,area with substrate ENLYFYS,area with substrate ENLYFDS,area with substrate ENLYFES,area with substrate ENLYFGS,area with substrate ENLYFKS,area with substrate ENLYFRS,area with substrate ENLYFSS
I86A,0.0463,0.0554,0.0601,0.0551,0.0524,0.0619,0.0456,0.0676,0.0608,0.0578,0.0388,0.0421,0.0562,–,–,–,–,–,–
E103F,0.0645,0.0591,–,–,–,0.0907,–,–,0.0723,–,–,–,–,0.0701,0.0795,–,–,–,–
V157M,0.0692,0.0601,0.0628,0.0799,0.0613,–,0.0664,0.0535,0.0594,0.0458,–,0.0592,–,0.0756,0.056,0.051,0.0404,0.0528,–
P184D,0.0566,0.0695,–,–,0.0529,–,0.0574,0.0537,0.0514,0.0537,0.0423,0.0476,0.0597,–,0.0473,0.0624,0.0547,–,–
R87W,0.0648,–,–,–,–,–,0.069,0.0556,0.0532,–,–,–,0.0562,–,0.0737,–,0.0665,0.061,–
C20Y,0.0517,0.0404,0.0267,–,0.049,–,0.0314,–,0.0592,–,–,0.0718,0.0519,0.0466,–,–,–,–,–
K90Y,0.0617,–,–,0.0483,0.0524,–,0.0619,–,–,–,–,0.0514,0.0242,–,0.0524,–,–,0.0269,–
V64S,0.0518,0.0724,0.0835,–,–,–,–,0.0677,0.0586,0.0492,–,0.0519,0.0521,–,–,–,–,–,–
F218A,0.0584,0.0589,0.0683,0.0488,0.0474,–,–,0.0688,0.0673,–,0.0518,0.0419,0.0482,–,–,0.0569,–,–,–
L22F,0.0488,0.0741,0.0619,0.0253,0.05,0.0366,0.0609,0.0612,0.0553,0.0582,0.0481,0.0556,0.0519,0.0508,0.0535,0.0548,0.0524,–,0.0553
E108L,0.0421,–,0.0703,0.0453,0.059,–,0.0595,–,0.0571,0.0621,–,–,0.0421,–,0.0484,0.0527,0.0659,0.0557,0.0475
G63K,0.0618,–,0.0646,–,0.0553,–,0.0572,0.0466,–,0.0558,–,0.048,–,–,0.054,–,0.0581,–,0.0501
N116R,0.0577,–,0.0692,–,0.0579,–,–,0.0577,0.0414,0.064,0.0418,–,–,0.0744,–,–,0.0702,0.0584,–
M219K,0.0578,0.048,0.065,0.0653,0.0561,0.0626,0.0527,–,0.0541,0.0567,–,0.069,0.0368,0.0602,0.0497,0.0573,0.0681,–,0.0612
E3I,0.0449,0.0541,0.0742,–,0.0608,–,0.0761,–,0.0499,0.0636,0.0377,–,–,0.0529,–,–,–,0.0547,0.055
H62C,0.064,0.0593,0.0642,0.0045,0.0464,–,–,–,0.063,0.055,–,0.0621,0.0594,0.061,–,–,0.0533,–,0.0603
M122G,0.053,–,–,–,0.0454,–,–,0.0596,–,0.0512,–,–,0.0609,–,0.0697,0.0568,–,–,0.0519
C111R,0.0621,0.0672,–,0.0505,0.0581,–,0.0511,0.0537,0.06,–,0.0572,0.0524,–,–,0.0603,0.0692,–,0.0753,–
L190Q,0.0551,0.0507,0.0846,–,0.0611,–,0.0673,–,–,0.058,–,–,–,–,0.0645,–,–,–,0.063
L190S,0.0571,0.0315,0.0584,0.064,0.0672,–,–,–,–,–,0.0546,–,–,–,–,–,–,–,–
I110C,0.0627,0.0583,0.0507,0.105,0.0537,0.0541,0.0673,0.0659,0.0473,0.0546,0.0401,0.0646,0.0637,–,0.0732,–,0.0584,–,0.0692
T55H,0.0627,0.0444,0.0622,0.0658,0.0666,–,0.061,0.0414,0.0634,0.0793,–,0.0762,0.0516,–,0.0598,–,0.0667,0.0682,–
S169Q,0.0532,–,0.0711,0.0572,0.053,0.0573,0.0548,0.0568,0.0594,0.0539,0.0543,0.058,0.0068,0.0705,0.051,0.0822,0.0581,0.0592,0.0583
S169G,0.0465,0.0614,0.0776,0.0607,0.0518,–,0.0472,0.0504,0.0749,0.0566,0.0563,0.0477,–,–,0.06,–,0.0649,0.0589,0.0572
K7P,0.0686,0.0602,–,–,0.0632,–,0.0699,0.0739,0.0614,–,–,–,–,–,0.0729,–,0.0661,0.0686,–
L112P,0.0485,0.055,0.0909,0.059,0.055,0.0524,0.052,0.061,0.0489,0.0515,–,0.0755,0.0541,0.0602,0.0511,0.0673,0.0576,–,–
V210F,0.0645,0.0628,0.0597,0.0624,0.0604,0.0412,0.0615,0.06,0.0675,0.0701,0.0513,0.0649,0.0528,0.0588,0.0584,–,–,–,–
I167N,0.045,0.0557,–,0.0492,0.045,–,0.0515,0.0472,0.0538,0.0504,0.0561,0.0485,0.0478,0.0586,0.0616,0.0555,0.0448,0.0521,0.0637
T174H,0.066,–,–,0.0355,0.0619,0.0635,–,–,0.0548,0.0557,0.0642,0.0561,–,0.053,0.0788,0.0542,–,–,–
